These are yes or no findings as the source states them, for the method shown. In cells and extracts the contact can be indirect. Some results given as binding are weak or reduced against the parent protein; the word gives no strength. For some of these results: Sequences can lack the tags named with a protein.
B1: myc-WIPI2B (protein, UniProt Q9Y4P8-4 1-436)
chain: MNLASQSGEAGAGQLLFANFNQDNTSLAVGSKSGYKFFSLSSVDKLEQIYECTDTEDVCIVERLFSSSLVAIVSLKAPRKLKVCHFKKGTEICNYSYSNTILAVKLNRQRLIVCLEESLYIHNIRDMKVLHTIRETPPNPAGLCALSINNDNCYLAYPGSATIGEVQVFDTINLRAANMIPAHDSPLAALAFDASGTKLATASEKGTVIRVFSIPEGQKLFEFRRGVKRCVSICSLAFSMDGMFLSASSNTETVHIFKLETVKEKPPEEPTTWTGYFGKVLMASTSYLPSQVTEMFNQGRAFATVRLPFCGHKNICSLATIQKIPRLLVGAADGYLYMYNLDPQEGGECALMKQHRLDGSLETTNEILDSASHDCPLVTQTYGAAAGKGTYVPSSPTRLAYTDDLGAVGGACLEDEASALRLDEDSEHPPMILRTD
B2: myc-WIPI2D (protein, UniProt Q9Y4P8-2 1-425)
chain: MNLASQSGEAGAGQLLFANFNQDNTSLAVGSKSGYKFFSLSSVDKLEQIYECTDTEDVCIVERLFSSSLVAIVSLKAPRKLKVCHFKKGTEICNYSYSNTILAVKLNRQRLIVCLEESLYIHNIRDMKVLHTIRETPPNPAGLCALSINNDNCYLAYPGSATIGEVQVFDTINLRAANMIPAHDSPLAALAFDASGTKLATASEKGTVIRVFSIPEGQKLFEFRRGVKRCVSICSLAFSMDGMFLSASSNTETVHIFKLETVKEKPPEEPTTWTGYFGKVLMASTSYLPSQVTEMFNQGRAFATVRLPFCGHKNICSLATIQKIPRLLVGAADGYLYMYNLDPQEGGECALMKQHRLDGSLETTNEILDSASHDCPLVTQTYGAAAGKAYTDDLGAVGGACLEDEASALRLDEDSEHPPMILRTD
B3: myc-WIPI1 (protein, UniProt Q5MNZ9 1-446)
chain: MEAEAADAPPGGVESALSCFSFNQDCTSLATGTKAGYKLFSLSSVEQLDQVHGSNEIPDVYIVERLFSSSLVVVVSHTKPRQMNVYHFKKGTEICNYSYSSNILSIRLNRQRLLVCLEESIYIHNIKDMKLLKTLLDIPANPTGLCALSINHSNSYLAYPGSLTSGEIVLYDGNSLKTVCTIAAHEGTLAAITFNASGSKLASASEKGTVIRVFSVPDGQKLYEFRRGMKRYVTISSLVFSMDSQFLCASSNTETVHIFKLEQVTNSRPEEPSTWSGYMGKMFMAATNYLPTQVSDMMHQDRAFATARLNFSGQRNICTLSTIQKLPRLLVASSSGHLYMYNLDPQDGGECVLIKTHSLLGSGTTEENKENDLRPSLPQSYAATVARPSASSASTVPGYSEDGGALRGEVIPEHEFATGPVCLDDENEFPPIILCRGNQKGKTKQS
B4: endogenous TSC1 (MEFs) (protein, UniProt Q9EP53 1-1161)
chain: MAQLANIGELLSMLDSSTLGVRDDVTAIFKESLNSERGPMLVNTLVDYYLETNSQPVLHILTTLQEPHDKHLLDKINEYVGKAATRLSILSLLGHVVRLQPSWKHKLSQAPLLPSLLKCLKMDTDVVVLTTGVLVLITMLPMIPQSGKQHLLDFFDIFGRLSSWCLKKPGHVTEVYLVHLHASVYALFHRLYGMYPCNFVSFLRSHYSMKENVETFEEVVKPMMEHVRIHPELVTGSKDHELDPRRWKTLETHDVVIECAKISLDPTEASYEDGYSVSHQLSACFPYRSADVTTSPYVDTQNSYGGSTSTPSSSSRLMLFSPPGQLPQSLSSPSTRLLPEPLQASLWSPSAVCGMTTPPTSPGNVPADLSHPYSKAFGTTAGGKGTPSGTPATSPPPAPPCPQDDCVHGSAAQASATAPRKEERADSSRPYLHRQSNDRGLEDPPGSKGSVTLRNLPDFLGDLASEEDSIEKDKEEAAISKELSEITTAEADPVVPRGGFDSPFYRDSLSGSQRKTHSAASGTQGSSVNPEPLHSSLDKHGPDTPKQAFTPIDPPSGSADVSPAGDRDRQTSLETSILTPSPCKIPPQRGVSFGSGQLPPYDHLFEVALPKTACHFVSKKTEELLKKVKGNPEEDCVPSTSPMEVLDRLIEQGAGAHSKELSRLSLPSKSVDWTHFGGSPPSDELRTLRDQLLLLHNQLLYERFKRQQHALRNRRLLRKVIRAAALEEHNAAMKDQLKLQEKDIQMWKVSLQKEQARYSQLQEQRDTMVTQLHSQIRQLQHDREEFYNQSQELQTKLEDCRNMIAELRVELKKANNKVCHTELLLSQVSQKLSNSESVQQQMEFLNRQLLVLGEVNELYLEQLQSKHPDTTKEVEMMKTAYRKELEKNRSHLLQQNQRLDASQRRVLELESLLAKKDHLLLEQKKYLEDVKSQASGQLLAAESRYEAQRKITRVLELEILDLYGRLEKDGRLRKLEEDRAEAAEAAEERLDCCSDGCTDSLVGHNEEASGHNGETRTSRPGGTRASCGGRVTGGSSSSSSELSTPEKPPSQRFSSRWEPALGEPSSSIPTTVGSLPSSKSFLGMKARELFRNKSESQCDEDSVTMSSSSLSETLKTELGKDSGTENKTSLSLDAPHPSSPNSDNVGQLHIMDYNETHPEHS
B5: endogenous WIPI1 (protein, UniProt Q5MNZ9 1-446)
chain: MEAEAADAPPGGVESALSCFSFNQDCTSLATGTKAGYKLFSLSSVEQLDQVHGSNEIPDVYIVERLFSSSLVVVVSHTKPRQMNVYHFKKGTEICNYSYSSNILSIRLNRQRLLVCLEESIYIHNIKDMKLLKTLLDIPANPTGLCALSINHSNSYLAYPGSLTSGEIVLYDGNSLKTVCTIAAHEGTLAAITFNASGSKLASASEKGTVIRVFSVPDGQKLYEFRRGMKRYVTISSLVFSMDSQFLCASSNTETVHIFKLEQVTNSRPEEPSTWSGYMGKMFMAATNYLPTQVSDMMHQDRAFATARLNFSGQRNICTLSTIQKLPRLLVASSSGHLYMYNLDPQDGGECVLIKTHSLLGSGTTEENKENDLRPSLPQSYAATVARPSASSASTVPGYSEDGGALRGEVIPEHEFATGPVCLDDENEFPPIILCRGNQKGKTKQS
B6: endogenous WIPI2 (protein, UniProt Q9Y4P8 1-454)
chain: MNLASQSGEAGAGQLLFANFNQDNTEVKGASRAAGLGRRAVVWSLAVGSKSGYKFFSLSSVDKLEQIYECTDTEDVCIVERLFSSSLVAIVSLKAPRKLKVCHFKKGTEICNYSYSNTILAVKLNRQRLIVCLEESLYIHNIRDMKVLHTIRETPPNPAGLCALSINNDNCYLAYPGSATIGEVQVFDTINLRAANMIPAHDSPLAALAFDASGTKLATASEKGTVIRVFSIPEGQKLFEFRRGVKRCVSICSLAFSMDGMFLSASSNTETVHIFKLETVKEKPPEEPTTWTGYFGKVLMASTSYLPSQVTEMFNQGRAFATVRLPFCGHKNICSLATIQKIPRLLVGAADGYLYMYNLDPQEGGECALMKQHRLDGSLETTNEILDSASHDCPLVTQTYGAAAGKGTYVPSSPTRLAYTDDLGAVGGACLEDEASALRLDEDSEHPPMILRTD
B7: endogenous WIPI4 (protein, UniProt Q9Y484 1-360)
chain: MTQQPLRGVTSLRFNQDQSCFCCAMETGVRIYNVEPLMEKGHLDHEQVGSMGLVEMLHRSNLLALVGGGSSPKFSEISVLIWDDAREGKDSKEKLVLEFTFTKPVLSVRMRHDKIVIVLKNRIYVYSFPDNPRKLFEFDTRDNPKGLCDLCPSLEKQLLVFPGHKCGSLQLVDLASTKPGTSSAPFTINAHQSDIACVSLNQPGTVVASASQKGTLIRLFDTQSKEKLVELRRGTDPATLYCINFSHDSSFLCASSDKGTVHIFALKDTRLNRRSALARVGKVGPMIGQYVDSQWSLASFTVPAESACICAFGRNTSKNVNSVIAICVDGTFHKYVFTPDGNCNREAFDVYLDICDDDDF

Protein sequences, listed by entry. Tags and fused reporters are not part of them.
UniProt Q5MNZ6: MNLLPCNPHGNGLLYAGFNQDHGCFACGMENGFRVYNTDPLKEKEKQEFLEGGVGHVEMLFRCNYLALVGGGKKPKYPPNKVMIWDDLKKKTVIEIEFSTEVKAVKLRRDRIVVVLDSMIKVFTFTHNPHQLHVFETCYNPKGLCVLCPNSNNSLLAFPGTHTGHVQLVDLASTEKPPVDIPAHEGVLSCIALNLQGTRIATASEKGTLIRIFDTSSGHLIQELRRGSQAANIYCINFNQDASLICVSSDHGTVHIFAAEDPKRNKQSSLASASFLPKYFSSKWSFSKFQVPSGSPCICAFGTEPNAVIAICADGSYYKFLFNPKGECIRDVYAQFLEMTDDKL
UniProt Q61037: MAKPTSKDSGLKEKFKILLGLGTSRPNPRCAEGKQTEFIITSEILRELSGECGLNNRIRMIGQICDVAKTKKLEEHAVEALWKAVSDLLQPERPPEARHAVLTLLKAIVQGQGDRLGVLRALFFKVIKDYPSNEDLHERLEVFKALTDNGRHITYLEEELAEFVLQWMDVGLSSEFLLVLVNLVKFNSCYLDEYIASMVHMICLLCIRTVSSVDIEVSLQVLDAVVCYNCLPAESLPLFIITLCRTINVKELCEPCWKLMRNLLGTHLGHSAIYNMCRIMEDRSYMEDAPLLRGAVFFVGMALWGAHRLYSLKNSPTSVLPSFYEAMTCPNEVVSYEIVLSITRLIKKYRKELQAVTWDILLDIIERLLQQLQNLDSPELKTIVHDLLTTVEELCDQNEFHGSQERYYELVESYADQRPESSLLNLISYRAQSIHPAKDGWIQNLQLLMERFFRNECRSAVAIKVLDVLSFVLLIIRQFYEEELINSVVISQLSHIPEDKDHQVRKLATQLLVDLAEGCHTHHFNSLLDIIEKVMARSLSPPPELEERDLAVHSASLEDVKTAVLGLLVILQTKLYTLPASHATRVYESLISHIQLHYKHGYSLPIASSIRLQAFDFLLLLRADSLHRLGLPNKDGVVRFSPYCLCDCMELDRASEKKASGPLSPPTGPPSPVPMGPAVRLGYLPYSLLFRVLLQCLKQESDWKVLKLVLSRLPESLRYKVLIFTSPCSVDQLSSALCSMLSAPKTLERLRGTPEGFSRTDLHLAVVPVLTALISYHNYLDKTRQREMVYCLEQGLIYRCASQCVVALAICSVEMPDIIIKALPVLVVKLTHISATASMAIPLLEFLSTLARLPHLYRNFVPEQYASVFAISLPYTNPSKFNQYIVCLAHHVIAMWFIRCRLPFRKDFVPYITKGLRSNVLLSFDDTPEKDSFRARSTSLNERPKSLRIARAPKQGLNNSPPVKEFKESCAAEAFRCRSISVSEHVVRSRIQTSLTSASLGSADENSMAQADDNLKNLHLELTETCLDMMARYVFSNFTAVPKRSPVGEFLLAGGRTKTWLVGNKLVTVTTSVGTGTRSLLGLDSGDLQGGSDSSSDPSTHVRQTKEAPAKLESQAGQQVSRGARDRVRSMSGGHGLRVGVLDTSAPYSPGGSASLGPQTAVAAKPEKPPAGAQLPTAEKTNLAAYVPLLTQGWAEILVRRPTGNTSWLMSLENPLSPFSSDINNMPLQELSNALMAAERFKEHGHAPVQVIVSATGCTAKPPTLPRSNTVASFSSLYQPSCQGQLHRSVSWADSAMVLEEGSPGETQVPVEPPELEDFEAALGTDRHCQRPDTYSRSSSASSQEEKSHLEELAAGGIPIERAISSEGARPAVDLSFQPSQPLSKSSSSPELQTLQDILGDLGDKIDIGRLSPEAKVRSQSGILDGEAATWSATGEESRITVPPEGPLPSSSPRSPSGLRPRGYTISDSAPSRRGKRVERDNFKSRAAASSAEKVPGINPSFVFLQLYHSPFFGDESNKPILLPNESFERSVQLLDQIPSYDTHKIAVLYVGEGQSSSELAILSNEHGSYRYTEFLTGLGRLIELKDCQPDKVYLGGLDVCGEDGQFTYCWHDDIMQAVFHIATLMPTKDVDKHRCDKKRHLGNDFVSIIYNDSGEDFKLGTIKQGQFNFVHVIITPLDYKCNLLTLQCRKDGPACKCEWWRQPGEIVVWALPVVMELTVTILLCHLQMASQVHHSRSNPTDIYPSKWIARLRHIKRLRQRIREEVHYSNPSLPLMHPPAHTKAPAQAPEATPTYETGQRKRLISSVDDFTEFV

Key:
[1] = target: GFP-WIPI3 expressed in mouse embryonic fibroblasts (human) (UniProt Q5MNZ6); assay: co-IP; ATG5 WT or KO MEFs expressing GFP-WIPI3 or GFP, fed or starved 3 h; anti-GFP immunoprecipitation, anti-TSC1 and anti-TSC2 immunoblotting
GFP-WIPI1 (human) = target: T1, GFP-WIPI1 (human) (UniProt Q5MNZ9); assay: co-IP; GFP- and myc-tagged WIPI variants co-expressed (Supplementary Fig. 3a,b); which antibody precipitated is not shown
T1 sequence: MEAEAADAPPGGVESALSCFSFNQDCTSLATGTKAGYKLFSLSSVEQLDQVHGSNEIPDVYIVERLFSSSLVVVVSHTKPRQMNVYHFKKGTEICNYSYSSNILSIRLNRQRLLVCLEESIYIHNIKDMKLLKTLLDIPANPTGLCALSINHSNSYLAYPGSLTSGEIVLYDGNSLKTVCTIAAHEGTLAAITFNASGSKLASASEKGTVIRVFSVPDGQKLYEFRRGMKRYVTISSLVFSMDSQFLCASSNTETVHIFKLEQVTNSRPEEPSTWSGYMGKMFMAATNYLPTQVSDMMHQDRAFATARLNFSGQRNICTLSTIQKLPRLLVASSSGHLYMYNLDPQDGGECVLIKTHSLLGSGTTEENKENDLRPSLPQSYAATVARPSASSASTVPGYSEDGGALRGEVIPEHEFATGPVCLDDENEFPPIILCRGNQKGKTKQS

GFP-WIPI4 (human) = target: T2, GFP-WIPI4 (human) (UniProt Q9Y484); assay: as above
T2 sequence: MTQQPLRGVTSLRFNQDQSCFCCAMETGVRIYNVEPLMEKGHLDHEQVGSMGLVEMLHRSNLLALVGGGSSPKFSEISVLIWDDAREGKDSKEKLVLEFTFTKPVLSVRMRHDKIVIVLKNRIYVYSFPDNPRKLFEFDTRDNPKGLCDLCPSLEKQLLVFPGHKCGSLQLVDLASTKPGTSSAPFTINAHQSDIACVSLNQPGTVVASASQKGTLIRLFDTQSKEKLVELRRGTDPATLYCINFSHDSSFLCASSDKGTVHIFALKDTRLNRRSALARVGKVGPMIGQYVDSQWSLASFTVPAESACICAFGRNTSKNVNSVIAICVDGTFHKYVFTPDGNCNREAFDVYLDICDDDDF

[2] = target: T3, endogenous TSC1 (human (endogenous in U2OS)) (UniProt Q92574); assay: co-IP; U2OS cells, endogenous proteins; anti-TSC1 immunoprecipitation, anti-WIPI1, anti-WIPI2, anti-WIPI3, anti-WIPI4 immunoblotting
T3 sequence: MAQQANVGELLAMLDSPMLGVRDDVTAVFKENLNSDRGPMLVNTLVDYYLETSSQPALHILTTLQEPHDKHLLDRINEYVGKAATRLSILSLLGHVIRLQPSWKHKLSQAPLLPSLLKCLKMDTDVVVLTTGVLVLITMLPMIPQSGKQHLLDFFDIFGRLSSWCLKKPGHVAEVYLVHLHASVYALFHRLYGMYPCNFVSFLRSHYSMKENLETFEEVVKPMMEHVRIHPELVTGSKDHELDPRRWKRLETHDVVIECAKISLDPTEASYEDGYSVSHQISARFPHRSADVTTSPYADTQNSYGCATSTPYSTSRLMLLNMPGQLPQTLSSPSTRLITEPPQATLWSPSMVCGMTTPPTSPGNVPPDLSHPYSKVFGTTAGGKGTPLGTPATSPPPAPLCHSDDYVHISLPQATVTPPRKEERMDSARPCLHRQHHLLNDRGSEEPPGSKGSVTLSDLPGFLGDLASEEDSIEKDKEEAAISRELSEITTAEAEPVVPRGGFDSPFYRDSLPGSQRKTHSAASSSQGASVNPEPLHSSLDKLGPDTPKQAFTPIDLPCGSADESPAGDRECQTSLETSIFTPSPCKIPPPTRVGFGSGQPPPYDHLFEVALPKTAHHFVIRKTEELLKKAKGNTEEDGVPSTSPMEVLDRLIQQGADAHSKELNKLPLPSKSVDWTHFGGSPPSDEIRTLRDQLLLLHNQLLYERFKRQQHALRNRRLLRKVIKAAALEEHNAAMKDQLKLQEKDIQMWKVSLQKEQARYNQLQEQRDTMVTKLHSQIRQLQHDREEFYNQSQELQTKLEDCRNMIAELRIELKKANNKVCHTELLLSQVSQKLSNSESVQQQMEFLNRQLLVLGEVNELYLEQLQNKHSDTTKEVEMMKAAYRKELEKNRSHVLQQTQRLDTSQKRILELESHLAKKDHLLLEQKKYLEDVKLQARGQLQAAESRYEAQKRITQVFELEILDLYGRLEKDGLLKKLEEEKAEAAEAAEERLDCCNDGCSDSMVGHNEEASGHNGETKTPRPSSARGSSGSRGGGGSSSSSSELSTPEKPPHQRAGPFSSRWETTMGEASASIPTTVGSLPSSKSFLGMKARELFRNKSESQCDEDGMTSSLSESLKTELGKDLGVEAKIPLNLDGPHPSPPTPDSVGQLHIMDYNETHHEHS

Molecule	binding (GFP-WIPI4 (human))	binding [2]	also measured
endogenous TSC2 (MEFs) (from UniProt Q61037 1-1814)	–	–	binding [1]: binds
B1	binds	–	binding (GFP-WIPI1 (human)): binds
B2	binds	–	binding (GFP-WIPI1 (human)): binds
B3	binds	–	–
B4	–	–	binding [1]: binds
B5	–	no binding	–
B6	–	no binding	–
B7	–	no binding	–

Source: paper PMC5460038
